For test [1], the target named is T1, human GPC3 (Gln25-His559)-His protein (Acro, Cat. No. GP3-H52H4) (human, UniProt P51654 25-559).
T1 construct: Bought protein; also called human GPC3-His protein; human GPC3-his protein; not shown: His tag
Kind of test: ELISA; antibody 1 nM. The method, then:
(§1) After incubation for 2 h at 37° C., the plate was washed 3 times with PBS.
On the technique in general: An ELISA detects its analyte on a solid surface through an enzyme-linked reagent.

For test [2], the target named is T2, monkey GPC3-His protein (Acro, Cat. No. GP3-05225) (monkey, UniProt A5A6P7 25-559).
T2 construct: Bought protein; the soluble protein surely lacks signal peptide and C-terminal anchor region; also called monkey GPC3 protein; not shown: His tag
Put plainly: ELISA; antibody 1 nM. Here is the method:
as §1

In test [3] the target is T3, mouse GPC3-His protein (Sino Biological, Cat. No. 50989-M08B) (mouse, UniProt Q8CFZ4 25-558).
T3 construct: Bought protein; also called mouse GPC3 protein; not shown: His tag
Put plainly: ELISA; antibody 1 nM. Here is the method: as §1

Test [4] deals with T3, mouse GPC3-His protein (Sino …). Kind of test: ELISA; antibody 0.1 nM. The method, then:
as §1

Test [5] has as its target T4, monkey GPC3 on HEK293T cells (monkey, UniProt A5A6P7 25-554).
T4 construct: Full-length monkey GPC3 (NCBI XP_011739317.1) transfected into HEK293T; also called HEK293T-monkey GPC3 cells; HEK293T-monkey-GPC3
Kind of test: FACS on HEK293T-monkey GPC3 cells.

For test [6], the target named is T3, mouse GPC3-His protein (Sino …). Kind of test: SPR (Biacore), antibody captured on Protein A chip.
The target in test [7] is T5, polypeptide YP7pep of human GPC3 (Asp511-Ser560) (human).
T5 construct: Synthetic peptide made by GL Biochem; also called polypeptide YP7pep protein
T5 peptide: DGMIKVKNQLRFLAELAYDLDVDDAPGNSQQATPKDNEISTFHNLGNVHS
Kind of test: ELISA on coated polypeptide YP7pep, HRP-labeled secondary antibody. Here is the method: as §1

In test [8] the target is T6, polypeptide GC3pep of human GPC3 (Ala524-Lys563) (human).
T6 construct: Synthetic peptide made by GL Biochem; also called polypeptide GC3pep protein
T6 peptide: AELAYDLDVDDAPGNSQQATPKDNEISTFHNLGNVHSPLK
Put plainly: ELISA on coated polypeptide GC3pep, HRP-labeled secondary antibody. The method, then:
as §1

The target of test [9] is T7, human GPC3 on cells (HepG2 endogenous; CHO-K1 recombinant clones CHOK1-hGPC3.1C3, 2B5, 3E9) (human, UniProt P51654 25-554).
T7 construct: Full-length human GPC3 (NCBI NM_004484.3) transfected into CHO-K1; HepG2 expresses GPC3 endogenously; also called CHO-K1-human GPC3 cells; HepG2 cells
Put plainly: FACS on HepG2 cells.

Test [10] has as its target T1, human GPC3 (Gln25-His559)-His protein …. Put plainly: SPR (Biacore), antibody captured on Protein A chip. The method, then:
The sample and running buffer was HBS-EP+ (10 mM HEPES, 150 mM NaCl, 3 mM EDTA, 0.05% surfactant P20) (GE Healthcare; BR-1006-69). The flow cell was set at 25° C. The sample block was set at 16° C. Both were pretreated with the running buffer. […] The association and dissociation processes of the antibody with the antigen protein were recorded, and finally, the chip was regenerated using Glycine pH 1.5 (GE Healthcare; BR-1003-54). […] The dissociation phase was monitored for up to 600 s and triggered by switching from the sample solution to the running buffer. The surface was regenerated by washing with 10 mM glycine solution (pH 1.5) at a flow rate of 30 μL/min for 30 s. The difference in bulk refractive index was corrected by subtracting the responses obtained from the goat anti-human Fc surface. Blank injections were also subtracted (double reference). To calculate the apparent KD and other kinetic parameters, the Langmuir 1:1 model was used.
Background: Surface plasmon resonance follows binding to a sensor surface in real time, without labels.

T3 sequence (Q8CFZ4 25-558 limits assumed): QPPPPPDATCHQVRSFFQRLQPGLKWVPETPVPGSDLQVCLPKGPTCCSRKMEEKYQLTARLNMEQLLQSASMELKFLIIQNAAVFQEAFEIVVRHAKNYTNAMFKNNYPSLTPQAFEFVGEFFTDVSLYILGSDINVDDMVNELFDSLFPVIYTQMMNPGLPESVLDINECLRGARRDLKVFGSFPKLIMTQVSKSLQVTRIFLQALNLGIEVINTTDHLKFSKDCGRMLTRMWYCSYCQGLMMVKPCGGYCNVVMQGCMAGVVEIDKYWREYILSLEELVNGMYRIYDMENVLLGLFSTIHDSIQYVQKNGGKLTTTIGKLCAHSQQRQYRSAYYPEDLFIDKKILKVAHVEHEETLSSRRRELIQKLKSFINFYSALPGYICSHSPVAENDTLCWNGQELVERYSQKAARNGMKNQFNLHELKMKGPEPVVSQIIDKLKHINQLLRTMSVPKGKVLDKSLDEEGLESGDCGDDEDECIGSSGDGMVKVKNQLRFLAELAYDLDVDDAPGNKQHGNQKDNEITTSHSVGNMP

B1: S001-NB152-101 VHH-hFc (Fc fusion)
chain: QVQLVESGGGLVQAGASLRLSCLGSGRSFGLRAMGWFRQAPGKELEFVAAIGKAGDTTYYTDSVKGRFTISRDNVKNAVYLQMNSLKPEDTAVYVCATAARWEPPTITPGSYRGPGTQVTVSS[human IgG1 Fc with changes left out]
notes: VHH recombined with human IgG1 Fc (VHH-hFc); the junction is not described
In general, EC50 refers to the concentration at which the effect is half-maximal. With B1, the OD450 was found to be 2.11 in test [1], 2.32 in test [2], 0.115 in test [3] and 0.19 in test [4]. In test [5], the midpoint of the response, the EC50, lay at 0.6 nM. In addition, the “Max MFI” value in test [5] came to 19400. Moreover, the binding result in test [6] is recorded as “no binding”; in test [7], “no binding (tested: 100 nM)”.

B2: S001-NB150-56 VHH-hFc (Fc fusion)
chain: QVQLVESGGGLVRPGGSLRVSCAASGVDISTYTMAWYRQAPGEQRESVAAISTTGRSIYIDAVQGRFTMSRDNAKNTVYLQMNNLKPEDTAVYYCNSADDLKIGTQYFKGLGWGQGTQVTVSS[human IgG1 Fc with changes left out]
notes: as for B1
What is called Kd is a measure of binding affinity in units of concentration. Broadly, the koff is the first-order rate constant of dissociation. A word on the kon: it is a measure of how fast the partners come together. On to B2, for which, in [1], the OD450 turned out to be 1.42. This molecule registered an OD450 in test [2] of 0.092. In addition, in test [3], the OD450 was 1.96. Besides, the OD450 in test [4] was 1.26. Further, in test [5], the EC50 stood at 73.9 nM and the “Max MFI” value was 1920. In [6], binding was characterised by a dissociation constant (Kd) of 9.28 nM, the koff amounted to 0.0129 s⁻¹ and the kon is 1.39e+06 M⁻¹ s⁻¹. Further, the binding result in test [7] is on record as “no binding (tested: 100 nM)”.

B3: S001-NB150-28(cyno+) VHH-hFc (Fc fusion)
chain: QVQLVESGGGLVQPGGSLRLSCAASGSISTYTMAWYRQAPGEQRESVAAISSGGRTDYIDSVKGRFTISRDNAKNMVYLQMNSLKPEDTAVYYCNSADGLKIGTYYFKGLGWGQGTQVTVSA[human IgG1 Fc with changes left out]
notes: as for B1
In the case of B3, the OD450 in test [1] is 1.94; in test [2], 1.06; in [3], 2.1; in [4], 1.7. In test [5], the EC50 is 0.49 nM. Besides, the “Max MFI” value in test [5] is 12800. The molecule further displayed a Kd in [6] of 6.42 nM. Also, the koff in test [6] is 0.0011 s⁻¹. The same molecule displayed a kon in test [6] of 171000 M⁻¹ s⁻¹. Besides, the binding result in test [7] is listed as “binds”.

B4: VH001 VHH-hFc (Fc fusion)
chain: QLQLVESGGGLVQPGGSLRLSCAASGFTLDVYAIGWFRQAPGKEREGVSYITSGDGIFYADSVKGRFTISRDNAKNTVYLQMNSLKPEDTAVYFCATLKRTTAGGWPIPGRIGGQGTQVTVSS[human IgG1 Fc with changes left out]
notes: as for B1
For the molecule B4, the OD450 was determined as 1.95 in [1], 1.91 in test [2], 0.07 in test [3] and 0.066 in test [4]. In [5], this molecule registered an EC50 of 0.23 nM. In [5], the “Max MFI” value was 15600. In addition, the Kd in [6] came to 10.2 nM. The molecule also displayed a koff in test [6] of 0.00137 s⁻¹. The kon in [6] came to 134000 M⁻¹ s⁻¹. Besides, the binding result in test [7] is on record as “no binding (tested: 100 nM)”.

B5: S001-NB152-72-2 VHH-hFc (Fc fusion)
chain: QVQLVESGGGLVQAGGSLRLSCAASGSILSITAMNWHRQAPGKERELVASITNGGRTNYADSVKGRFTISRDRAKGTLYLQMNNLKPEDTAVYYCYARRWTGGDRPEYESWGQGTQVTVSS[human IgG1 Fc with changes left out]
notes: as for B1
Broadly, the EC50 (read off the curve) is the concentration that produces a half-maximal response. With B5, the OD450 in [1] was 2.02; in [2], 2.07; in test [3] it was 2.26; in test [4], 1.54. The molecule also displayed an EC50 in test [5] of 0.58 nM. The “Max MFI” value in [5] came out at 24700. The molecule further gave a Kd in test [6] of 3.99 nM. Moreover, in [6], the koff came to 0.000872 s⁻¹. The kon in test [6] was determined as 219000 M⁻¹ s⁻¹. The “EC50 (read off the curve)” value in test [8] is roughly 0.1 nM; in [7] it was roughly 0.06 nM.

B6: Tab003 (Y035 scFv-hFc) (Fc fusion)
chain: DIVMTQTPLSLPVITGEPASISCRSSQSLVHSNGNTYLQWYLQKPGQSPQLLIYKVSNRFSGVPDRFSGSGSGTDFTLKISRVEAEDVGVYYCSQSIYVPYTFGQGTKLEIKRGGGGSGGGGSGGGGSEVQLVQSGAEVKKPGASVKVSCKASGYTFSDYEMHWVRQAPGQGLEWMGAIHPGSGDTAYNQRFKGRVTITADKSTSTAYMELSSLRSEDTAVYYCARFYSYAYWGQGTLVTVSA[human IgG1 Fc with changes left out]
notes: Control antibody: VL-(GGGGS)3-VH of Y035 fused to human IgG1 Fc; also called Y035 scFv-human IgG1 Fc
For B6, the figures for the 50% effective concentration (EC50) in test [9] and in [5] were 6.81 nM and 2.85 nM, respectively. For the same molecule, the OD450 in [1] is 1.89; in [2] it was 1.93; in [3], 0.046; in test [4] it was 0.047. For the same molecule, in [5], the “Max MFI” value is 23200. Besides, the Kd in [10] is 3.51 nM. For the same molecule, in [10], the off-rate (koff) came out at 0.000426 s⁻¹. In test [10], this molecule had a kon of 122000 M⁻¹ s⁻¹. The “EC50 (read off the curve)” value in test [8] is roughly 0.04 nM; in test [7], roughly 0.03 nM.

The values are drawn from patent publication US20240052055A1 (SIMCERE ZAIMING PHARMACEUTICAL, published 2024).
